Results as given in PubChem BioAssay AID938 (National Center for Advancing Translational Sciences (NCATS), 2007).
Hit rate of the full screen: of about 73,000 compounds, about 1,800 (2.5%) were called active. The shares of active, inactive and inconclusive entries below differ from those in the screen. Calls follow the shape of the dose curve; as a rule, active = well fitted activation curve with a large enough effect; inconclusive = small, poorly fitted or top-dose-only effect; inactive = no such curve, though single readings can be large or run the other way. Potencies of inconclusive entries are left out as doubtful fits.

experiment: qHTS Assay for Agonists of the Thyroid Stimulating Hormone Receptor: Activators of Intracellular cAMP Concentrations in Parental HEK 293; details: parental HEK293 CNG cAMP sensor, membrane potential fluorescence; activation: at 57.1 µM (top of the series) unless noted; also: nearly all actives have a fitted effect of over 55% in size; as to activation: % of control where 0% means no effect
How it was run: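 Parental HEK 293 cells stably expressing a cAMP-gated CNG channel were loaded with membrane potential dye containing 100 uM RO 20-1724 for 60 min. Compound added for 30 min; depolarization read as fluorescence intensity at 590 nm.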
Potency is read from the fitted curve at half-maximal effect; tags tell the direction and shape of the fitted curve.

Structure (SMILES) | Potency | activation
O=C1N(Cc2ccc3c(c2)OCO3)c2ccccc2C1(O)c1c[nH]c2ccccc12 (stereo unspecified) | inconclusive [activator, single point] | –
CCOC(=O)C(C)Sc1ncnc2c1nnn2-c1ccc(F)cc1 (stereo unspecified) | inconclusive [activator, partial curve] | –
O=C(Nc1ccccc1)N1CCC2(CC1)CCN(C(=O)c1ccncc1)CC2 | inconclusive [activator, single point] | –
O=C(COc1cccc(OC(F)F)c1)Nc1ccc(SC(F)F)cc1 | inconclusive [activator, single point] | –
CN(C)c1ccc(-c2noc(-c3ccccc3O)n2)cc1 | – | inactive: -3.14%
FC(F)(F)c1ccccc1-c1nc(-n2ccnc2)c2ccccc2n1 | inconclusive [activator, full curve, poor fit] | –
COc1ccccc1-c1cc(C(=O)NCc2ccc(Cl)cc2)no1 | – | inactive: 10.4%
Cc1cc(C)nc(SCC(=O)Nn2cnnc2)n1 | inconclusive [activator, partial curve] | –
CCOC(=O)c1oc2cccc(O)c2c1CN1CCOCC1 | – | inactive: 20.1%
O=C(C1CC1)N1CCc2cc(Br)cc(S(=O)(=O)NCc3ccc4c(c3)OCO4)c21 | inconclusive [activator, partial curve, poor fit] | –
O=C(CSc1nnc(-c2ccco2)n1Cc1ccccc1)NC(=O)NCc1ccco1 | inconclusive [activator, single point] | –
Cc1sc2ncnc(Sc3nnnn3-c3ccccc3)c2c1C | inconclusive [activator, single point] | –
CCOC(=O)CSc1nnc(CNc2cccc(Cl)c2)n1-c1ccccc1 | inconclusive [activator, single point] | –
COc1ccc(Cc2nc(-c3ccc(Cl)cc3)no2)cc1 | inconclusive [activator, partial curve] | –
CCOC(=O)OCC1OC(c2ccccc2)C=CC1Oc1cccc(N(C)C)c1 (stereo unspecified) | – | inactive: 7.2% [at 11.4 µM]
COc1ccccc1N1CCN(c2nc3ccccc3nc2C(C#N)C(=O)OC(C)C)CC1 (stereo unspecified) | inconclusive [activator, single point] | –
CCOc1ccc(-n2c(-c3ccco3)n[nH]c2=S)cc1 | – | inactive: -0.472%
COC(=O)C(NC(=O)c1ccccc1)=C(C)C | – | inactive: 2.35%
COc1ccc(Br)cc1C1CC(=O)N2CN(Cc3ccccc3)CSC2=C1C#N (stereo unspecified) | – | inactive: 4.95%
O=C(NCC(c1cccs1)N1CCOCC1)c1ccc(Cl)s1 (stereo unspecified) | inconclusive [activator, partial curve] | –
COC(=O)c1ccc(C(NC(=O)OCc2ccccc2)/C(C)=C/[C@@H](C)C(=O)NCc2nc3ccccc3s2)cc1 (stereo partly specified) | inconclusive [activator, single point] | –
O=C1CCCC=C1[C@@H](O)CCOCc1ccccc1 | – | inactive: 2.4% [at 11.4 µM]
CC(C)CN(CC(C)C)c1nc(N)c(C#N)c(CC#N)c1C#N | inconclusive [activator, partial curve] | –
Cc1ccccc1OCCn1nc(C(=O)O)c2ccccc2c1=O | inconclusive [activator, single point] | –

Structure (SMILES) | Potency | activation
COc1cccc(-c2cc(C(=O)Nc3cc(C)on3)no2)c1 | – | inactive: 24.3%
CCc1nnc(NC(=O)c2ccc(OC)cc2OC)s1 | active: 25.1 µM | –
CCCn1c(-c2ccc(F)cc2)nc2c(NCCCN(C)C)nc(C)nc21 | active: 25.1 µM | –
COc1ccc(-c2nnc(SCc3ccccc3)n2N)cc1 | inconclusive [activator, single point] | –
Cc1ccc(OCc2nn3c(-c4n[nH]c5c4CCC5)nnc3s2)cc1 | inconclusive [activator, partial curve] | –
COc1ccccc1NC(=O)CSc1ccc2nnc(-c3ccccn3)n2n1 | inconclusive [activator, single point] | –
COC(=O)NC(c1ccccc1)C(C(=O)OC)C(=O)OC (stereo unspecified) | inconclusive [activator, single point] | –
CCOC(C)(C)C | – | inactive: 14.8%
COc1cccc(-c2cc(C(=O)N3CCN(c4ncccn4)CC3)c3ccccc3n2)c1 | – | inactive: 25.2%
COc1cc(-c2cc(=O)c3ccccc3o2)ccc1O | – | inactive: -5.2%
COc1ccc(-c2noc(COc3ccc(Cl)c(C)c3)n2)cc1 | inconclusive [activator, single point] | –
N=C(c1ccc2ccccc2c1)c1ccccc1Cc1ccccc1 | – | inactive: 13.8% [at 11.4 µM]
CC(=O)S[C@@H]1CC2=CC(=O)CC[C@@]2(C)[C@H]2CC[C@]3(C)[C@H](CC[C@@]34CCC(=O)O4)[C@H]12 | – | inactive: 4.25%
Cc1c(N)c(=O)n(-c2ccccc2)n1C | – | inactive: 0.0108% [at 25.6 µM]
O=C(CSc1nnnn1Cc1ccccc1)Nc1ccc2c(c1)OCO2 | – | inactive: 17.9%
CN(C)c1ncc2nc(CCc3ccccc3)c(=O)n(-c3ccccc3)c2n1 | inconclusive [activator, full curve, poor fit] | –
COC(=O)N1CCC[C@@]2(CCN(c3ccccn3)C2)C1 | inconclusive [activator, partial curve] | –
CCOC(=O)c1ccc(NC(=O)CS(=O)(=O)c2cn(CC)c3ccccc23)cc1 | – | inactive: 9.17%
Cc1cccc2cc(C#N)c(SCCN3CCCCC3)nc12 | inconclusive [activator, partial curve, poor fit] | –
CCOc1cccc(C(=O)Nc2cccc(-c3nc4ncccc4o3)c2C)c1 | inconclusive [activator, partial curve, poor fit] | –
CCC(=O)Nc1nc(C)cc(SCC(=O)OC)n1 | inconclusive [activator, partial curve] | –
CCC(=O)c1cccc2c1N=CC1=C(CC(C)(C)CC1=O)N2 | inconclusive [activator, single point] | –
CO[C@H]1C[C@@H](O[C@@H]2[C@H](C)[C@H](O[C@@H]3O[C@@H](C)C[C@@H](N(C)C)[C@@H]3O)[C@H](C)C[C@]3(CO3)C(=O)[C@H](C)[C@H](O)[C@H](C)[C@H](C)OC(=O)[C@@H]2C)O[C@@H](C)[C@H]1O | – | inactive: 9.68% [at 25.6 µM]
COc1cccc(Cn2c(=O)c(C)nc3cnc(Oc4cccc(Cl)c4)nc32)c1 | inconclusive [activator, full curve] | –

Structure (SMILES) | Potency | activation
CC(=O)C1=C(O)C(=O)N(CCc2c[nH]c3ccccc23)C1c1cccc(O)c1 (stereo unspecified) | inconclusive [activator, single point] | –
COc1ccc(CCNC(=O)Cn2c(-c3nonc3N)nc3ccccc32)cc1OC | inconclusive [activator, single point] | –
COc1ccc(Cn2c(C)nc3c(c2=O)c2nc4ccccc4nc2n3Cc2ccco2)cc1 | inconclusive [activator, partial curve] | –
N#CC(C(=O)c1ccc(S(=O)(=O)N2CCCCCC2)cc1)c1nc2ccccc2[nH]1 (stereo unspecified) | inconclusive [activator, single point] | –
CC(=O)NCC(=O)NC1(C(=O)NC2CCCC2)CCCCC1 | inconclusive [activator, single point] | –
O=C(NCc1ccco1)c1nc2nc(-c3cccs3)cc(C(F)(F)F)n2n1 | – | inactive: -5.57%
COc1ccc2c(c1)c(CC(=O)O)c(C)n2C(=O)c1ccccc1 | inconclusive [activator, single point] | –
CC(C)(C)c1nc(SCC(=O)NCc2ccco2)c2ccccc2n1 | inconclusive [activator, partial curve] | –
COc1cccc(-c2nccc(NCCc3c[nH]c4ccc(OC)cc34)n2)c1 | – | inactive: -20.5%
CC(C)(C)N(Cc1ccccc1)C(=O)c1ccc2c(c1)OCCO2 | inconclusive [activator, partial curve] | –
COc1ccccc1OCc1nc(C#N)c(N2CC(C)CC(C)C2)o1 (stereo unspecified) | active: 12.6 µM | –
O=S(=O)(Nc1ccn(-c2ccccc2)n1)c1ccc(Br)cc1 | inconclusive [activator, full curve, poor fit] | –
CCC(=O)Nc1c(-c2ccc(OC)cc2)c(=O)c2ccccc2n1C | inconclusive [activator, single point] | –
O=C(Nc1cccc(F)c1)N1CC2(CCN(S(=O)(=O)c3ccccc3)CC2)C1 | – | inactive: 1.64%
COc1ccc(C(=O)Nc2nnc(C(F)(F)F)s2)cc1 | – | inactive: 11.9%
C=CCN1C(=Nc2cccnc2)SCC1(O)c1ccc(C)cc1 (stereo unspecified) | inconclusive [activator, partial curve] | –
CNC(=O)[C@H]1O[C@H](n2cnc3c(NCc4cccc(I)c4)ncnc32)[C@@H](O)[C@@H]1O | – | inactive: 0.572%
COc1ccc(CNc2ccnc(-c3cccnc3)n2)c(OC)c1 | inconclusive [activator, single point] | –
CC(C)c1nc(-c2c(N)n(C)c(=O)n(C)c2=O)sc1C(=O)C(C)(C)C | active: 15.8 µM | –
O=S(=O)(Nc1nc2ccccc2nc1N1CCN(c2ccccn2)CC1)c1ccc(Cl)cc1 | inconclusive [activator, single point] | –
Cc1cc(/C=N/n2cnnc2)c(C)n1-c1ccc(Cl)cc1Cl | active: 3.16 µM | –
C=CCSc1nnc(NC(=O)CSc2nnc(C)s2)s1 | – | inactive: 2.69%
O=C(Cn1cnc2c(nnn2-c2ccccc2)c1=O)N1CCCc2ccccc21 | inconclusive [activator, single point] | –
